# In the supplement of paper PMC11741623:
# The other results are listed elsewhere or left out. Interaction screen of human proteins with wild-type SARS-CoV-2 proteins by split-DHFR complementation in yeast, 1 µg/mL methotrexate. Value = fitness of the pair (three or more lineages) minus that of the viral protein without a human partner, on a scale set by negative (0) and fused positive (1) controls, mean of up to three cultures; higher = more likely to interact. Active = false discovery rate below 0.05 (one-sided t-test) in at least one culture. Nearly all pairs are not hits, and differences among them are mostly noise (correlation between cultures about 0.3); most hits were seen in one culture only. Human sequences are the Swiss-Prot entries looked up by gene name; the clone may be another isoform. NSP2 values were corrected by the authors for a growth advantage. Listed are human proteins with a hit and a random twelfth of the others.
# B1: DIRAS2, Q96HU8 (protein)
# chain: MPEQSNDYRVAVFGAGGVGKSSLVLRFVKGTFRESYIPTVEDTYRQVISCDKSICTLQITDTTGSHQFPAMQRLSISKGHAFILVYSITSRQSLEELKPIYEQICEIKGDVESIPIMLVGNKCDESPSREVQSSEAEALARTWKCAFMETSAKLNHNVKELFQELLNLEKRRTVSLQIDGKKSKQQKRKEKLKGKCVIM
# B2: HRASLS5, Q96KN8 (protein)
# chain: MGLSPGAEGEYALRLPRIPPPLPKPASRTASTGPKDQPPALRRSAVPHSGLNSISPLELEESVGFAALVQLPAKQPPPGTLEQGRSIQQGEKAVVSLETTPSQKADWSSIPKPENEGKLIKQAAEGKPRPRPGDLIEIFRIGYEHWAIYVEDDCVVHLAPPSEEFEVGSITSIFSNRAVVKYSRLEDVLHGCSWKVNNKLDGTYLPLPVDKIIQRTKKMVNKIVQYSLIEGNCEHFVNGLRYGVPRSQQVEHALMEGAKAAGAVISAVVDSIKPKPITA
# Target: SARS-CoV-2 E
# Assay: yeast fitness gain over the viral ORF with no human partner (scaled fitness); higher = more likely to interact
# Method: (§1)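 Split mouse DHFR complementation in pooled diploid yeast: human ORFeome clones carry one fragment and viral ORFs the other; barcoded lineages compete in 1 µg/mL methotrexate and fitness is read by barcode sequencing in up to three cultures.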
row,Binder,yeast fitness gain
1,B1,inactive: -0.0436
2,B2,inactive: -0.0476

# Target: SARS-CoV-2 M
# Assay: as above
# Method: as §1
row,Binder,yeast fitness gain
1,B1,inactive: 0.0865
2,B2,inactive: -0.0632

# Target: SARS-CoV-2 N
# Assay: as above
# Method: as §1
row,Binder,yeast fitness gain
1,B1,inactive: 0.132
2,B2,inactive: 0.0205

# Target: SARS-CoV-2 NSP1
# Assay: as above
# Method: as §1
row,Binder,yeast fitness gain
1,B1,inactive: -0.0236
2,B2,inactive: 0.0357

# Target: SARS-CoV-2 NSP10
# Assay: as above
# Method: as §1
row,Binder,yeast fitness gain
1,B1,inactive: 0.0145
2,B2,inactive: 0.0123

# Target: SARS-CoV-2 NSP12
# Assay: as above
# Method: as §1
row,Binder,yeast fitness gain
1,B1,inactive: 0.0357
2,B2,inactive: -0.0576

# Target: SARS-CoV-2 NSP13
# Assay: as above
# Method: as §1
row,Binder,yeast fitness gain
1,B1,inactive: -0.0571
2,B2,inactive: -0.0286

# Target: SARS-CoV-2 NSP14
# Assay: as above
# Method: as §1
row,Binder,yeast fitness gain
1,B1,inactive: -0.0183
2,B2,inactive: 0.0759

# Target: SARS-CoV-2 NSP16
# Assay: as above
# Method: as §1
row,Binder,yeast fitness gain
1,B1,inactive: -0.123
2,B2,inactive: -0.0215

# Target: SARS-CoV-2 NSP2
# Assay: as above
# Method: as §1
row,Binder,yeast fitness gain
1,B1,inactive: -0.219
2,B2,inactive: -0.203

# Target: SARS-CoV-2 NSP4
# Assay: as above
# Method: as §1
row,Binder,yeast fitness gain
1,B1,inactive: 0.0291
2,B2,inactive: 0.0425

# Target: SARS-CoV-2 NSP5
# Assay: as above
# Method: as §1
row,Binder,yeast fitness gain
1,B1,inactive: -0.0903
2,B2,inactive: 0.027

# Target: SARS-CoV-2 NSP6
# Assay: as above
# Method: as §1
row,Binder,yeast fitness gain
1,B1,inactive: -0.0297
2,B2,inactive: -0.0344

# Target: SARS-CoV-2 NSP7
# Assay: as above
# Method: as §1
row,Binder,yeast fitness gain
1,B1,inactive: -0.0335
2,B2,inactive: -0.0377

# Target: SARS-CoV-2 NSP8
# Assay: as above
# Method: as §1
row,Binder,yeast fitness gain
1,B1,inactive: 0.0708
2,B2,inactive: -0.0046

# Target: SARS-CoV-2 NSP9
# Assay: as above
# Method: as §1
row,Binder,yeast fitness gain
1,B1,inactive: -0.0105
2,B2,inactive: 0.0898

# Target: SARS-CoV-2 ORF10
# Assay: as above
# Method: as §1
row,Binder,yeast fitness gain
1,B1,inactive: 0.0453
2,B2,inactive: 0.0443

# Target: SARS-CoV-2 ORF3A
# Assay: as above
# Method: as §1
row,Binder,yeast fitness gain
1,B1,inactive: -0.0706
2,B2,inactive: -0.0501

# Target: SARS-CoV-2 ORF3B
# Assay: as above
# Method: as §1
row,Binder,yeast fitness gain
1,B1,inactive: 0.0531
2,B2,inactive: 0.0509

# Target: SARS-CoV-2 ORF6
# Assay: as above
# Method: as §1
row,Binder,yeast fitness gain
1,B1,inactive: 0.0112
2,B2,inactive: 0.0332

# Target: SARS-CoV-2 ORF7A
# Assay: as above
# Method: as §1
row,Binder,yeast fitness gain
1,B1,inactive: -0.0319
2,B2,inactive: -0.171

# Target: SARS-CoV-2 ORF7B
# Assay: as above
# Method: as §1
row,Binder,yeast fitness gain
1,B1,inactive: 0.0121
2,B2,inactive: 0.0286

# Target: SARS-CoV-2 ORF8
# Assay: as above
# Method: as §1
row,Binder,yeast fitness gain
1,B1,inactive: -0.0533
2,B2,inactive: 0.0632

# Target: SARS-CoV-2 ORF9B
# Assay: as above
# Method: as §1
row,Binder,yeast fitness gain
1,B1,inactive: 0.00292
2,B2,inactive: -0.0358

# Target: SARS-CoV-2 ORF9Bwu (the 73-codon ORF)
# Assay: as above
# Method: as §1
row,Binder,yeast fitness gain
1,B1,inactive: -0.0204
2,B2,inactive: 0.0524

# Target: SARS-CoV-2 S
# Assay: as above
# Method: as §1
row,Binder,yeast fitness gain
1,B1,inactive: 0.0127
2,B2,inactive: 0.0376
